The record followed here is paper PMC6664820, “Novel natural and synthetic inhibitors of solute carriers SGLT1 and SGLT2” (Pharmacology Research & Perspectives, 2019).

About 40 (2%) of roughly 1,900 compounds showed an effect of 50% or more. The list shows a part of the results.

The target of the assay is human SGLT1 (hSGLT1) (human, UniProt P13866). Briefly: primary screen, percent of control activity; higher = less effect of the substance. The following applies: 50 µM. Further details: single well. The protocol: Two days before the assay, CHO‐wild type and CHO‐hSGLT1 cells were seeded in maintenance medium at 25 000 cells/well in clear‐bottom black 96‐well cell culture plates. Before the assay, cells were washed 3 times with 150 μL/well D‐glucose free DMEM with 0.3% (w/v) BSA. Library compounds at 50 μmol/L (singlicate) prepared in D‐glucose free DMEM with 160 μmol/L 1‐NBD‐glucose and 0.3% (w/v) BSA and negative controls (triplicate) were added at 100 μL/well and placed in a humidified incubator at 37°C with 5% CO2 for 90 minutes. Next, cells were washed 3 times with DMEM with 0.3% (w/v) BSA (150 μL/well). Care was taken to remove all medium after the last wash. Finally, 1‐NBD‐glucose was extracted from the cells by adding 10 μL/well isopropanol and orbital shaking for 5 minutes at 600 rpm, followed by incubation in the dark for 30 minutes. Fluorescence was measured on a Tecan Infinite M200 Microplate Reader (Tecan, Männedorf, Switzerland) with excitation at 445 nm and emission at 525 nm. The amount of 1‐NBD‐glucose taken up by the CHO‐wild type or CHO‐hSGLT1 cells in the presence or absence of test compounds was interpolated from 1‐NBD‐glucose calibration standards. The background uptake by CHO‐wild type was subtracted from the uptake by CHO‐hSGLT1. Background corrected uptake with test compound was expressed as a percentage of corrected uptake without test compound.
human SGLT1 (hSGLT1), sequence (P13866 whole entry, looked up): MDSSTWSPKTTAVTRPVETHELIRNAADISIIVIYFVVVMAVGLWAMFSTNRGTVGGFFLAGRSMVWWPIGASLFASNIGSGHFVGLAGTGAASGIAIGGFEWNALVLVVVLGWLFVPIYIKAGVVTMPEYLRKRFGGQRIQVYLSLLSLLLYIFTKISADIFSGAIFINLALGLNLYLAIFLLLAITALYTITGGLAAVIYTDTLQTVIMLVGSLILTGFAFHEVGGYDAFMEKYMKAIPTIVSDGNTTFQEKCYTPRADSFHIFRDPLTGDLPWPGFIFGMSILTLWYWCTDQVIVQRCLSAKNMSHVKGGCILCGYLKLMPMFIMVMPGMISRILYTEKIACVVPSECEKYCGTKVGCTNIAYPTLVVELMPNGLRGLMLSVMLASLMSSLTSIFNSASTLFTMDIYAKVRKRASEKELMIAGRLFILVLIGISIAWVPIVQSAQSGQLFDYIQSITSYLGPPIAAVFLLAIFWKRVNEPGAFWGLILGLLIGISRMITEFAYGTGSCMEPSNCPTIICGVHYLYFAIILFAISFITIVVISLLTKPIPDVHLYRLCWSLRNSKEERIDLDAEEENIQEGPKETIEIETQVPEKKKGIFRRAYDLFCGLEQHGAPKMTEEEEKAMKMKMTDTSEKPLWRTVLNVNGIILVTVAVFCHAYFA
Take `Cc1ccsc1/C=C/C1=NCCCN1C.O=C(O)CC(O)(CC(=O)O)C(=O)O`: the “NORMALIZED SGLT1 ACTIVITY (%)” value is reported as 91%.

On to `CCCC(C(=O)OCCN(CC)CC)(c1ccccc1)c1ccccc1.Cl`, for which the “NORMALIZED SGLT1 ACTIVITY (%)” value is reported as 85%.

For `CNCCCN1c2ccccc2CCc2ccccc21.Cl`, the “NORMALIZED SGLT1 ACTIVITY (%)” value was 135%.

For `COC(=O)[C@]1(C)CCC[C@]2(C)c3ccc(C(C)C)cc3C(=O)CC12` (stereo partly shown), the “NORMALIZED SGLT1 ACTIVITY (%)” value was determined as 89%.

Consider `CCCC(=O)Nc1ccc(OCC(O)CNC(C)C)c(C(C)=O)c1.Cl` (stereo not shown), for which the “NORMALIZED SGLT1 ACTIVITY (%)” value amounted to 117%.

Turning to `CC(=O)O[C@H]1CC[C@@]2(C)C(C[C@H](OC(C)=O)[C@@]3(C)C4=CC(=O)OC(c5ccoc5)[C@]4(C)CCC23)C1(C)C` (stereo partly shown), the “NORMALIZED SGLT1 ACTIVITY (%)” value turned out to be 111%.

Consider `C=C1C/C=C(\C)CC[C@@H]2[C@@H]1CC2(C)C`, for which the “NORMALIZED SGLT1 ACTIVITY (%)” value is on record as 120%.

Consider `Cn1c(=O)c2c(ncn2CCO)n(C)c1=O`, for which the “NORMALIZED SGLT1 ACTIVITY (%)” value amounted to 122%.

Regarding `COc1c2c(c(CC=C(C)C)c3oc(=O)c(-c4ccc(O)cc4)c(O)c13)OC(C)(C)C=C2`, the “NORMALIZED SGLT1 ACTIVITY (%)” value amounted to 279%.

Regarding `COc1cc(O)ccc1C(C)=O`, the “NORMALIZED SGLT1 ACTIVITY (%)” value stood at 92%.

Turning to `COc1ccc2c(c1)CCC1C2CC[C@@]2(C)C1CC[C@@H]2O` (stereo partly shown), the “NORMALIZED SGLT1 ACTIVITY (%)” value was 172%.

Take `CCCCC(CC)CN1CN(CC(CC)CCCC)CC(C)(N)C1` (stereo not shown): the “NORMALIZED SGLT1 ACTIVITY (%)” value is 67%.

As for `CC(C)c1c(O)c(-c2cc3c(c(C(C)C)c2O)CCC2C(C)(C)CCC[C@]32C)cc2c1CCC1C(C)(C)CCC[C@]21C` (stereo partly shown), the “NORMALIZED SGLT1 ACTIVITY (%)” value amounted to 91%.

Regarding `CCC1(CC)C(=O)C=CNC1=O`, the “NORMALIZED SGLT1 ACTIVITY (%)” value came to 99%.

In the case of `O=C1C(Cl)=C(Cl)C(=O)C(Cl)=C1Cl`, the “NORMALIZED SGLT1 ACTIVITY (%)” value came out at 108%.

For the molecule `CN1C2CCC1CC(OC(c1ccccc1)c1ccccc1N)C2` (stereo not shown), the “NORMALIZED SGLT1 ACTIVITY (%)” value is 61%.

Regarding `Cl[C@H]1[C@H](Cl)[C@@H](Cl)[C@@H](Cl)[C@H](Cl)[C@H]1Cl`, the “NORMALIZED SGLT1 ACTIVITY (%)” value is given as 115%.

In the case of `COc1cc(C(=O)NCc2ccc(OCCN(C)C)cc2)cc(OC)c1OC.Cl`, the “NORMALIZED SGLT1 ACTIVITY (%)” value is 136%.

As for `COc1cc(Cc2cnc(N)nc2N)cc(OC)c1OC`, the “NORMALIZED SGLT1 ACTIVITY (%)” value is on record as 121%.

On to `O=C(O)C1CC([C@@H]2CCCCN2)CN2CCCCC12` (stereo partly shown), for which the “NORMALIZED SGLT1 ACTIVITY (%)” value worked out at 113%.

Take `COc1ccccc1OCCNCC(O)COc1cccc2[nH]c3ccccc3c12` (stereo not shown): the “NORMALIZED SGLT1 ACTIVITY (%)” value stood at 124%.

Take `Cc1ccccc1N1C(=O)c2cc(S(N)(=O)=O)c(Cl)cc2NC1C` (stereo not shown): the “NORMALIZED SGLT1 ACTIVITY (%)” value amounted to 81%.

In the case of `CC[C@@H](C(=O)[C@@H](C)[C@@H](O)[C@H](C)[C@@H]1O[C@@H]([C@@H](CC)C(=O)[O-])CC[C@@H]1C)[C@H]1OC2(C=C[C@@H](O)[C@]3(CC[C@@](C)([C@H]4CC[C@](O)(CC)[C@H](C)O4)O3)O2)[C@H](C)C[C@@H]1C.[Na+]` (stereo partly shown), the “NORMALIZED SGLT1 ACTIVITY (%)” value is on record as 301%.

Turning to `C[N+](C)(C)CC(O)CC(=O)O.[Cl-]` (stereo not shown), the “NORMALIZED SGLT1 ACTIVITY (%)” value turned out to be 111%.

As for `CC(CCC(=O)O)[C@H]1CCC2C3C[C@H](O)[C@@H]4C[C@H](O)CC[C@]4(C)C3CC[C@@]21C` (stereo partly shown), the “NORMALIZED SGLT1 ACTIVITY (%)” value was 218%.

`O=c1oc2ccccc2cc1O`: the “NORMALIZED SGLT1 ACTIVITY (%)” value came out at 136%.

Turning to `O=C(O)c1c2ccccc2cc2ccccc12`, the “NORMALIZED SGLT1 ACTIVITY (%)” value is reported as 107%.

As for `COc1ccc(/C=C/C(=O)Nc2ccccc2C(=O)O)cc1OC`, the “NORMALIZED SGLT1 ACTIVITY (%)” value turned out to be 167%.

As to `C=C[C@@H](C1=CC(=O)C(OC)=C(OC)C1=O)c1ccccc1`, the “NORMALIZED SGLT1 ACTIVITY (%)” value is recorded as 126%.

As for `COC1=CC(=O)C(C(=O)c2ccccc2)=CC1=O`, the “NORMALIZED SGLT1 ACTIVITY (%)” value was determined as 256%.

For the molecule `CNC(=O)N(C)c1nnc(C(C)(C)C)s1`, the “NORMALIZED SGLT1 ACTIVITY (%)” value came out at 103%.

Regarding `C=C[C@](C)(O)CCC=C(C)C`, the “NORMALIZED SGLT1 ACTIVITY (%)” value turned out to be 83%.

In the case of `CC(=O)O[C@H]1CC[C@@]2(C)C(CC[C@]3(C)C2CC=C2C4CC(C)(C)CC[C@]4(C)CC[C@]23C)C1(C)C` (stereo partly shown), the “NORMALIZED SGLT1 ACTIVITY (%)” value was 88%.

As to `CCC(=O)OC1[C@@H]2CC3=C4CC(=O)O[C@@H](c5ccoc5)[C@]4(C)CCC3[C@@](C)(C2=O)[C@@H](CC(=O)OC)C1(C)C` (stereo partly shown), the “NORMALIZED SGLT1 ACTIVITY (%)” value amounted to 138%.

With `O=C(O)c1cc([N+](=O)[O-])ccc1NCCCc1ccccc1`, the “NORMALIZED SGLT1 ACTIVITY (%)” value amounted to 373%.

Consider `C[C@H]1CC2C3CCC4=CC(=O)C=C[C@]4(C)[C@@]3(F)[C@@H](O)C[C@]2(C)[C@@]1(O)C(=O)CO` (stereo partly shown), for which the “NORMALIZED SGLT1 ACTIVITY (%)” value came out at 241%.

With `COC(=O)[C@@H]1OC(=O)C2OC23[C@@]1(C)CCC1[C@]2(C)C(C[C@@H](O)[C@]13C)C(C)(C)[C@H](OC(C)=O)C[C@@H]2OC(C)=O` (stereo partly shown), the “NORMALIZED SGLT1 ACTIVITY (%)” value is listed as 121%.

For `CC(=O)CC(=O)CCC(=O)O`, the “NORMALIZED SGLT1 ACTIVITY (%)” value is reported as 81%.

In the case of `COC(=O)C(C)c1ccc(C(=O)c2cccs2)cc1` (stereo not shown), the “NORMALIZED SGLT1 ACTIVITY (%)” value amounted to 93%.

With `Cl.NNCc1ccccc1`, the “NORMALIZED SGLT1 ACTIVITY (%)” value is recorded as 115%.

Consider `CC(NCCC(c1ccccc1)c1ccccc1)c1ccccc1.Cl` (stereo not shown), for which the “NORMALIZED SGLT1 ACTIVITY (%)” value is 48%.

Regarding `O=C(O)c1cc2ccccc2c(Cc2c(O)c(C(=O)O)cc3ccccc23)c1O.OCCOCCN1CCN(C(c2ccccc2)c2ccc(Cl)cc2)CC1`, the “NORMALIZED SGLT1 ACTIVITY (%)” value stood at 115%.

`CC(=O)/C(=C\c1ccccc1)CC(=O)O`: the “NORMALIZED SGLT1 ACTIVITY (%)” value is 142%.

Turning to `CC1=CC(=O)C2=C(C)CC[C@@H]3[C@H](OC(=O)[C@H]3C)[C@@H]12`, the “NORMALIZED SGLT1 ACTIVITY (%)” value is given as 109%.

As to `CCc1cccc(C)c1N(C(=O)CCl)C(C)COC` (stereo not shown), the “NORMALIZED SGLT1 ACTIVITY (%)” value came to 92%.

As to `CCOC(=O)OC(C)OC(=O)C1N2C(=O)C(NC(=O)[C@H](N)c3ccccc3)C2SC1(C)C.Cl` (stereo partly shown), the “NORMALIZED SGLT1 ACTIVITY (%)” value stood at 124%.

`NS(=O)(=O)c1cc(C(=O)O)c(NCc2ccco2)cc1Cl`: the “NORMALIZED SGLT1 ACTIVITY (%)” value is 86%.

Take `Cc1cc2cc3c(C)cc(=O)oc3c(C)c2o1`: the “NORMALIZED SGLT1 ACTIVITY (%)” value is reported as 203%.

With `NS(=O)(=O)c1cc2c(cc1Cl)N=CNS2(=O)=O`, the “NORMALIZED SGLT1 ACTIVITY (%)” value is on record as 102%.

With `COC(=O)C[C@H]1C(C)(C)[C@@H](O)[C@@H]2CC3=C4C=C(OC)O[C@@H](c5ccoc5)[C@]4(C)CCC3[C@@]1(C)C2=O` (stereo partly shown), the “NORMALIZED SGLT1 ACTIVITY (%)” value was determined as 82%.

Consider `C[C@H](N)C(=O)NC(Cc1ccccc1)C(=O)O` (mixture of isomers), for which the “NORMALIZED SGLT1 ACTIVITY (%)” value stood at 114%.

As to `O=C1C=C2C(=CCOC2O)O1` (stereo not shown), the “NORMALIZED SGLT1 ACTIVITY (%)” value stood at 148%.

Take `COc1ccc(/C=C/c2cc(O)cc(O)c2)cc1`: the “NORMALIZED SGLT1 ACTIVITY (%)” value was found to be 198%.

Consider `CCCCOC(=O)c1ccc(N)cc1`, for which the “NORMALIZED SGLT1 ACTIVITY (%)” value was determined as 129%.

Consider `CCCCC(=O)N(Cc1ccc(-c2ccccc2-c2nn[nH]n2)cc1)[C@H](C(=O)O)C(C)C`, for which the “NORMALIZED SGLT1 ACTIVITY (%)” value worked out at 101%.

Regarding `CC1(C)S[C@@H]2[C@H](NC(=O)[C@H](N)c3ccccc3)C(=O)N2[C@H]1C(=O)[O-].[Na+]`, the “NORMALIZED SGLT1 ACTIVITY (%)” value is 98%.

Regarding `C[C@H](CCC(=O)O)[C@H]1CCC2C3C(CC[C@@]21C)[C@@]1(C)CC[C@@H](O)C[C@H]1C[C@@H]3O` (stereo partly shown), the “NORMALIZED SGLT1 ACTIVITY (%)” value came out at 173%.

For `CNC1(C)C2CCC(C2)C1(C)C.Cl` (stereo not shown), the “NORMALIZED SGLT1 ACTIVITY (%)” value was found to be 97%.

On to `O=S(=O)(O)O.Oc1cccc2cccnc12`, for which the “NORMALIZED SGLT1 ACTIVITY (%)” value worked out at 127%.

Consider `O=C(OCc1ccccc1)c1ccccc1`, for which the “NORMALIZED SGLT1 ACTIVITY (%)” value is listed as 92%.

On to `CC(C)[N+]1(C)C2CC[C@@H]1C[C@@H](OC(=O)C(CO)c1ccccc1)C2.[Br-]` (stereo partly shown), for which the “NORMALIZED SGLT1 ACTIVITY (%)” value stood at 83%.
